From the supplement of paper PMC12632987
In all, about 4,500 sequences were measured (“median log2 fold change of GCK-ALFA target abundance (FLAG IP / Myc IP barcode read proportion)”: median about 0.078, lowest 2% from about -0.6 on). The list shows a part of the results.

B1: GBRAP_95_7067 (protein)
chain: NDDELVLLDDAEIAETLAELGDAEGAAEAIERALEAAAKLPELTPEQQAALARLLDVLERIAPKIPKERALELAERLRELATDPELQARAEELIEEIRKR
B2: GBRAP_52_6198 (protein)
chain: MREEARRLAEAVFEAVKAGDLEKARELLRELARKKDEELIRLFAEEMARLALEVPDEDLDYVFETAELAEEVFEEEGVDEAIADDFIARVAAALYKREQA
B3: GBRAP_83_6908 (protein)
chain: AEEITVVATGDRAVAAVDAVIDLTKEEGKDVDVEILATPADFDKVLAAVERLAEAGVEVDLTVYMRGATPEEAAALRARLEAIAARHGVDIDVEVVLLEE
B4: GBRAP_95_7021 (protein)
chain: EDDQLAADSDAEVLETAVDLGDEAAARAAARRLAATVAADPSVRFPPDLSPAAVRVVIEAAREEFDRETAARLLERLAASAADPEVRALARAALAEVRAE
B5: GBRAP_184_5350 (protein)
chain: TTLEVVIEADTVDAAIAQLNAAAAEAAAAGAGLNVLIKVPINTVADAEKLMAALAAAAAAGVLTGTVGIEGVSSDEAIIDTLVDGADAAGIRVVLALDEE
B6: GBRAP_84_7008 (protein)
chain: SRREERLALIEEILARSSIELRRLLLAYLILANDNEGATLALQALLAEDPEAAAEALDLATEAYEEGKEEEVEKRLLEEAAKEGEEVRALVERLLELIRS
B7: GBRAP_57_6476 (protein)
chain: SAKKAELEAAKARALALIRAGAPEEEIREALSEFLSLLSKDSLLLLLAYMGVDARADDPKEVLVEKATEALLEVLRTEGPERAERIIEDAAAEDLEELEE
B8: GBRAP_78_6730 (protein)
chain: ELKEKLEEALEVAAEAARLAVHRVSNEVIAEIVEALSHLHEALELVEEGGPKEEILEELEKALEHLKKALELLPESAEEIRKLVEEAIKLVKEAIKLVKK
B9: GBRAP_160_4093 (protein)
chain: SEKVEKIIKEIKELEEETKKDIEGENIEQRATILRGFGGDVLMLLFESGVVPDEVEDFADKEFDALVAKVEANPELTLEEIKALLDEVVDKVIKKIKEKG
B10: GBRAP_11_2806 (protein)
chain: KKEKLKELAKLLEEAAKKLDELLEKGTDDKELLEEIEKLLEEAEKLAKELGDKDLIKLVEIAKELVKKAKEDPANAEEYLQLARATLRVAEGQVLLLIEE
B11: GBRAP_52_6151 (protein)
chain: AAARAAAYAREFVAAVRAGDEEKARAIMKEIAATLDDEEIALFLREVARLVAGLSPEDRERVVEAVLEFEDIAVAAGHDEDILSYETARVAGAAYEALQR
B12: GBRAP_106_2562 (protein)
chain: SKLDELKAFLEEKANEAFATVEAVTQAIVDRFGVDRAEAEAAVRAHALAYVNWKLTQKAKELGINNPEMMKAIEEVMRANRDKSKEEIIAKAKAVLDKHL
B13: GBRAP_125_3044 (protein)
chain: GMEEAIEALKELAKIFGLSEEEIEELAKLAKEFGVKGALIALLLAEGEEELAELAAKLSEEAVKEVLKKFLEWIKENPNITKEEAIEKLKELLKEALKKE
B14: GBRAP_184_5154 (protein)
chain: KVLEFVIKAKNLEELKKKLEEIEEAAKKEKAKLIILLDVEKLTKEMVDELAKRVKEMKDKGYVKEVVVGVDADLTEEMVDYVLKKFDEAGAKVAIALDEE
B15: GBRAP_52_6084 (protein)
chain: MKEKIEKTAKEIYEAIKAGDKEKALELIKKAVEEFSKEEIKEMLELTAKRVASLGDDAHELFVDILDEAEDILIEAGISEDDALLIVGSAEAALAKAVAA
B16: GBRAP_43_5786 (protein)
chain: SEELVEGALETARLLFEEPSISQEQKVRAAKAAFDLAADEGIDNREAIRAVVEAAAASLDKESLEELRDHALELAERYPELRETFLEAAELLEAAIKALE
B17: GBRAP_160_4083 (protein)
chain: SAAYKALIAEVTAIFDEAEEMMEGVTREEAVAIALVALGEVALLIEEEEALSEEDKETLLAVVDEAEREVRAAADATVEEIKALLRRHRDRLVATIKALD
B18: GBRAP_78_6633 (protein)
chain: EVEELLDKAIEELDKAARLAKKLPKEKQNEVLDLIVDAMSYILEAEEEGFDLKLLEEALKKVEEAIKEVKKLDLPEAKELLKELEKAKELLKKAIELVKK
B19: GBRAP_166_4881 (protein)
chain: MEEKLVEETLKKLKELIEKASKLNPIEQIDKYIEIAELLKKAREEGLSEEKLLEIIKETLRLTHEAGLNPRQLLGVLIDIAELSEEEIDELEEEIERLEK
B20: GBRAP_52_6114 (protein)
chain: MEAAAAAAVDEVLALVRAGDLDAARARLKEIAATWDDAELEVLAAALAARAAAAPAADLDAVWRLAEMAADELEEAGRDEALADLLLARTAAALAAREAA
B21: GBRAP_26_5474 (protein)
chain: VEEEVEAALKEMEKLLKELLDPETAAAATASAFTIVEEAVEEMKKNAKDKEKLKKAAEKAVKEIAADLETLGVDADTRAKIVAKAKAELEKIVKAIEKEA
B22: GBRAP_196_5418 (protein)
chain: DALEEIKKLEEESKKETEGIKESDYTIVANITPENLEEEVKKTAEIAKDLNNPTIELVHPGDLEEILKALKKLKEELKKKGVISEIIVVSEALEEAEEKA
B23: GBRAP_186_5377 (protein)
chain: EEKLEEKLDEIIDKLEKEGYRVIVIDTIEELTPEEKEAIERDIEAAGELAKETGKKIALVIPFKGTEEEVKEAKAFIEELNKKAEEESGLKVVLAAEVVE
B24: GBRAP_78_6622 (protein)
chain: ELEELLDEAIEKIGRAAKLALKLKTPLADELLGELVDAASELVEAEEKGGDLEELKEAREELKKALKIAKELGNEELEKELKEALKLVEEAIKLVEEKKK
B25: GBRAP_184_5172 (protein)
chain: MVEEFEIEVKNEEELKEKLDKIEEAVKGKKAKLVVIVKAEKITEEMARVLMERLKRMKEAGYVTDVLVDIEGEVSEETIDVLVKLADEAGVKLVIAIPEE
B26: GBRAP_95_7078 (protein)
chain: DDDLETLEALATTAVDLYEAGLRAQAARAIRAALDEAEALGYAVPDQALMTELLRAAADLALEHFDEAEIERLLAFAKAVGAPQEIIDALEAALAAKKAA
B27: GBRAP_83_6940 (protein)
chain: AEHIVVAAPGDHVAEAVEAALDLHKEEGYEVSLEFLFTDEEAEKVLKEVKKLLAAGVEVDITLIHTDGNKEVLEKAVKEIKEAAKEAGVKVNVEGYVIEP
B28: GBRAP_160_3984 (protein)
chain: EERLEKLIKYIKEEFEETIKMIKGESHEERVTIVRGTIGEIIMELSEDPNVSEEAEEEVDKVGRELVETIESNPELTEEEIEELIKKAEEKIIEILKKDY
B29: GBRAP_160_4366 (protein)
chain: SSALKALAAEIKALREEFEKEAKDLSPEETRTLAIGVLSEVAALVFDNPAVSDELEDEIMAIIDEAIKQLKENKDASPEEIVAITNEAIDRIIALIEAEA

Molecular target: GABARAP, O95166
Sequence (O95166 whole entry, the tested form may be a part): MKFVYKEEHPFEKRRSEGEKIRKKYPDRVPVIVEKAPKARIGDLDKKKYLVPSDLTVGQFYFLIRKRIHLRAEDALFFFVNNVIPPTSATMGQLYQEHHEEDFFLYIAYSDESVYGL
Assay: median log2 fold change of GCK-ALFA target abundance (FLAG IP / Myc IP barcode read proportion) (log2 ratio); each designed protein is fused to an ALFA-tag nanobody in HEK293 cells to bring the named protein to FLAG-tagged glucokinase (GCK); Myc marks an untargeted standard; higher = target protein stabilised (more abundant)
Conditions: target protein: 3xFLAG-MCP-GCK-ALFA reporter; HEK293 landing pad (RPLP)
In short: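 Binders fused to an ALFA nanobody were recombined as a library into HEK293 landing-pad cells, which were induced with 2 μg mL^−1 doxycycline and then transfected to express a FLAG-tagged target and a Myc-tagged standard. After 48 h, circular RNA barcodes recovered by anti-FLAG and anti-Myc immunoprecipitation of lysates were reverse transcribed, amplified and sequenced. Each binder's target abundance is the median log2 ratio of FLAG to Myc barcode read proportions, from barcodes present at ≥10^−7 in both replicates, binders carrying ≥3 barcodes per replicate, a 10^−6 pseudocount and pooled replicates.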

Row | Binder | median log2 fold change
1 | B1 | 0.261
2 | B2 | -0.0387
3 | B3 | 0.0204
4 | B4 | 0.211
5 | B5 | -0.0764
6 | B6 | -0.393
7 | B7 | 0.266
8 | B8 | 0.00114
9 | B9 | 0.247
10 | B10 | -0.142
11 | B11 | 0.0301
12 | B12 | -0.133
13 | B13 | 0.19
14 | B14 | -0.0211
15 | B15 | -0.732
16 | B16 | 0.296
17 | B17 | -0.332
18 | B18 | 0.435
19 | B19 | 0.316
20 | B20 | -0.0124
21 | B21 | 0.241
22 | B22 | 0.096
23 | B23 | 0.18
24 | B24 | 0.126
25 | B25 | 0.178
26 | B26 | 0.186
27 | B27 | -0.00062
28 | B28 | 0.34
29 | B29 | 0.0763
